In the supplement of paper PMC3334620:
In all, about 33,000 sequences were measured (“E-score (-0.5 to 0.5)”: median about -0.012, highest 2% from about 0.29 on). Some of the results follow.

Molecular target: T1, Ybr033w (UniProt P38073)
T1 sequence: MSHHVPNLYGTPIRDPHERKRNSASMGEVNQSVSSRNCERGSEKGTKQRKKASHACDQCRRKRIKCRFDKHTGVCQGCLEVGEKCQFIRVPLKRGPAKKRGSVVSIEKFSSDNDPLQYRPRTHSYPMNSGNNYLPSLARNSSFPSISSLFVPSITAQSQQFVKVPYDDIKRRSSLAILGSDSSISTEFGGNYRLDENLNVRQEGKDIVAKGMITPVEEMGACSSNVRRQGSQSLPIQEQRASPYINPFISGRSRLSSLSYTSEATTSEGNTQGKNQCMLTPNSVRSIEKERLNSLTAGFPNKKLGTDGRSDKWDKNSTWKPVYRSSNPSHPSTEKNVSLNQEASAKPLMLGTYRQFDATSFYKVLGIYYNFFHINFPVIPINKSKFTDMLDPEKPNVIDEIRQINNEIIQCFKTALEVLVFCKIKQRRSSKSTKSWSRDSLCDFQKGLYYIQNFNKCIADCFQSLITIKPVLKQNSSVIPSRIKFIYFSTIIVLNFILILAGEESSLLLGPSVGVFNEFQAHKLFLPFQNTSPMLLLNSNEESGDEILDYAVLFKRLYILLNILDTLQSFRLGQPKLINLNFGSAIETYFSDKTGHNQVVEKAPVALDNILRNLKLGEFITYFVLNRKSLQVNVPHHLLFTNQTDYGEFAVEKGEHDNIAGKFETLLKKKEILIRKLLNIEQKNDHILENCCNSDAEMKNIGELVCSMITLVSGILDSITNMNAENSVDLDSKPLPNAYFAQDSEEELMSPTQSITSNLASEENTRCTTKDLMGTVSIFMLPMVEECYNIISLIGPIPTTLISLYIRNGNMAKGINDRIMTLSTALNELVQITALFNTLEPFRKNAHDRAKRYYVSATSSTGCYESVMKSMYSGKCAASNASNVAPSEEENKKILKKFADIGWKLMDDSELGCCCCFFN
Assay: PBM E-score (8-mer binding enrichment) (E-score (-0.5 to 0.5)); higher = stronger / more preferred TF binding; most listed sequences are background and not binding sites
Settings: protein concentration: 200 nM; construct: GST-full length
Method in brief: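 Detection of bound protein used fluorescent anti-GST, with scans normalised by masliner. The proteins were GST-tagged yeast transcription factors applied at about 100-200 nM to universal all-10-mer Agilent arrays made double-stranded by primer extension. Each ungapped eight-base word, pooled with its reverse complement, was scored with an E-score from the Universal PBM Analysis Suite.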

Sequence	PBM E-score
CCCTATTA	0.0075
ATCTCAAC	0.16
AGAGCGCG	-0.0481
CAGGCCAA	-0.209
CATCGAAA	0.0429
ACTCGATA	0.238
AATGTCGG	0.0232
CCCCTATA	-0.111
AATACGCG	0.0536
TATCATCA	0.216
GGCGTTAA	-0.0939
ACAGCGGT	-0.173
GTCAACTA	0.161
ATCACGGA	0.133
ACAGAGCC	-0.195
CCGTGTCG	-0.114
CACCAATC	-0.0769
CTGGCAGA	-0.00651
ACGAGTCT	-0.165
CTACGTCA	-0.0853
CACGTTAG	-0.0646
ATCGTTTA	0.307
ATGCGCCC	-0.0256
AGCTGGAG	-0.144
ATGAAGGG	-0.0569

Sequence	PBM E-score
TGAATAAA	0.195
GACAGTAA	0.0683
CGTTGGGA	-0.168
GCCAGACC	-0.177
CTACGGAG	-0.072
CGGGATAG	-0.143
AGGGCTTG	-0.134
CAAGCTAC	0.0217
ACTGCAAT	0.0873
GCCCAGGC	-0.389
CGCCGAAG	-0.197
ACCACTGG	0.0408
CGACCACA	-0.126
AGCAGCAG	-0.0491
ACTCGCGA	0.241
GACGCGCC	-0.203
ACAACGAA	0.0989
ACAATTCC	0.137
AGGGGGCA	-0.293
ATCTGTTA	0.169
AAGAAACT	0.249
CGATCCCA	-0.212
AACATAAT	0.295
GTGGTATA	0.0819
CAAAATGA	0.139

Sequence	PBM E-score
ATTATGGC	0.169
ACGAGCAA	-0.0912
CCCCCTGA	-0.445
CCTTATCC	-0.316
CAATGAAC	0.00305
ACACCACG	-0.187
ACCATGAG	-0.124
AGATCCTC	-0.00161
CAATTTTC	0.212
CTATCGTA	0.0572
AGCATCTG	-0.193
ATGTTTTA	0.0642
TAACCTGA	0.0342
AGAGAGCC	-0.2
AGCTCTCC	-0.265
ACGAATCC	0.052
TACAACCA	0.149
CTTTTATA	0.176
CCTTACAG	-0.0582
CCGCAGTC	-0.151
ACGGACGA	0.0974
TTGATCAA	0.096
GTTGCGGA	-0.0408
CCAAGCCC	-0.289
CAGTAACA	0.186

Sequence	PBM E-score
ATCAGTGG	-0.0788
GTGGGATA	0.037
ACATTGGG	-0.0214
ACCAGGCA	-0.137
TACTTAGA	0.125
AAATTGGG	0.175
AGAGGGCC	-0.287
ATTCTACA	0.17
CTAACGCC	-0.0983
AGTGCACA	-0.0358
AATATGGC	-0.0217
AGCCTGTC	-0.0235
CAAAATGC	0.102
GCTATGTA	-0.106
CCATGAGA	-0.086
AGGGTTAT	0.00086
GAAACCAA	0.106
ACGTGCTG	-0.0106
AAGCGCGC	0.0512
CCGAGTTC	0.0991
TCCGGGCA	0.0575
ATAGGGCC	-0.198
TCCTAGAA	-0.113
CGATACGC	-0.0077
CCTCGATC	-0.114

Sequence	PBM E-score
GAGGAGAC	-0.249
AGTGTTCA	0.081
CTGTGCCC	-0.205
ACCCGTCC	-0.225
CCTTTAGC	-0.087
CATACCGC	-0.0495
GCCTCCAC	-0.291
AGCTCGTG	-0.072
AAACGTTT	0.0726
CTGCACGA	0.0216
ACCGATCC	-0.185
ACGCGCTG	-0.167
CCACGGTA	-0.144
TGGGGGAA	-0.172
GTCACCAA	-0.16
AATGGGGA	-0.192
GACACAAC	-0.101
GCATATGA	0.094
AAACAGTA	0.191
CGAGCCTA	-0.0771
AATGGGCG	-0.0212
AAGAGTTA	0.126
CGTGCATC	-0.184
AGTAAAAC	0.0884
ACTGCCGC	0.0159

Sequence	PBM E-score
ATCGTAAG	-0.0318
CCCGCGAA	-0.00032
GAAGATCC	-0.0624
AACGTTTG	0.0394
CAGCTAGA	-0.156
GTGCTCTA	-0.198
AGATAACA	0.0908
CATAGAAC	-0.134
TCAGGCAA	-0.116
ATGCAGAC	-0.126
CCCATGAA	-0.00986
CGGAGCTC	-0.308
CTTCCAAA	0.156
GGACATAC	0.00087
ACTTAGAT	0.211
CCTTTTAC	0.00999
AACAAATG	0.139
CCGCTCGC	-0.0741
CGTTTGCA	0.00146
CAATGCTA	0.115
CTGTCGAA	0.0437
AGGCCAAA	-0.00819
CAAGGAAC	0.0832
AAAGCAAG	0.188
GCTTAAGA	-0.0053

Sequence	PBM E-score
AAGATTCG	0.231
AGTGATAA	0.0273
AGCTAACG	-0.122
AAGCGCTG	0.0201
CTCAAGGA	-0.103
AAGACCTC	-0.202
ACCCATAG	-0.315
TCAGCCGA	0.0152
CTGTTACA	0.0163
CCTCGCTA	-0.151
GCAGGACA	0.025
AAATAAGA	0.16
ACCCGTTA	0.0456
ATATAAGA	0.25
CGCCACAC	-0.0773
ACCTCGTA	0.0833
ATAAAACA	0.187
CCATAGCA	0.029
AGTCGGGA	-0.247
AACCCGGC	0.0321
GACTGCGC	-0.14
TAGGGGCA	-0.276
